Data as given in the supplement of paper PMC3334620.
In all, about 33,000 sequences were measured (“E-score (-0.5 to 0.5)”: median about -0.053, highest 2% from about 0.37 on). The list shows a part of the results.

Target: Hap1 (UniProt P0CE41)
Experiment: PBM E-score (8-mer binding enrichment) (E-score (-0.5 to 0.5)); higher = stronger / more preferred TF binding; most listed sequences are background and not binding sites
Conditions: protein concentration: 200 nM; construct: GST-DNA-binding domain
Procedure, shortened: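 Using PURExpress in vitro transcription/translation, GST-tagged yeast transcription factors were made in full-length or DNA-binding-domain form. These were applied at about 100-200 nM to double-stranded universal all-10-mer Agilent arrays, and bound protein was detected with fluorescent anti-GST. Scans were normalised with masliner before the Universal PBM Analysis Suite assigned E-scores to ungapped eight-base words pooled with their reverse complements.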

Chain of UniProt P0CE41 (P0CE41 whole entry): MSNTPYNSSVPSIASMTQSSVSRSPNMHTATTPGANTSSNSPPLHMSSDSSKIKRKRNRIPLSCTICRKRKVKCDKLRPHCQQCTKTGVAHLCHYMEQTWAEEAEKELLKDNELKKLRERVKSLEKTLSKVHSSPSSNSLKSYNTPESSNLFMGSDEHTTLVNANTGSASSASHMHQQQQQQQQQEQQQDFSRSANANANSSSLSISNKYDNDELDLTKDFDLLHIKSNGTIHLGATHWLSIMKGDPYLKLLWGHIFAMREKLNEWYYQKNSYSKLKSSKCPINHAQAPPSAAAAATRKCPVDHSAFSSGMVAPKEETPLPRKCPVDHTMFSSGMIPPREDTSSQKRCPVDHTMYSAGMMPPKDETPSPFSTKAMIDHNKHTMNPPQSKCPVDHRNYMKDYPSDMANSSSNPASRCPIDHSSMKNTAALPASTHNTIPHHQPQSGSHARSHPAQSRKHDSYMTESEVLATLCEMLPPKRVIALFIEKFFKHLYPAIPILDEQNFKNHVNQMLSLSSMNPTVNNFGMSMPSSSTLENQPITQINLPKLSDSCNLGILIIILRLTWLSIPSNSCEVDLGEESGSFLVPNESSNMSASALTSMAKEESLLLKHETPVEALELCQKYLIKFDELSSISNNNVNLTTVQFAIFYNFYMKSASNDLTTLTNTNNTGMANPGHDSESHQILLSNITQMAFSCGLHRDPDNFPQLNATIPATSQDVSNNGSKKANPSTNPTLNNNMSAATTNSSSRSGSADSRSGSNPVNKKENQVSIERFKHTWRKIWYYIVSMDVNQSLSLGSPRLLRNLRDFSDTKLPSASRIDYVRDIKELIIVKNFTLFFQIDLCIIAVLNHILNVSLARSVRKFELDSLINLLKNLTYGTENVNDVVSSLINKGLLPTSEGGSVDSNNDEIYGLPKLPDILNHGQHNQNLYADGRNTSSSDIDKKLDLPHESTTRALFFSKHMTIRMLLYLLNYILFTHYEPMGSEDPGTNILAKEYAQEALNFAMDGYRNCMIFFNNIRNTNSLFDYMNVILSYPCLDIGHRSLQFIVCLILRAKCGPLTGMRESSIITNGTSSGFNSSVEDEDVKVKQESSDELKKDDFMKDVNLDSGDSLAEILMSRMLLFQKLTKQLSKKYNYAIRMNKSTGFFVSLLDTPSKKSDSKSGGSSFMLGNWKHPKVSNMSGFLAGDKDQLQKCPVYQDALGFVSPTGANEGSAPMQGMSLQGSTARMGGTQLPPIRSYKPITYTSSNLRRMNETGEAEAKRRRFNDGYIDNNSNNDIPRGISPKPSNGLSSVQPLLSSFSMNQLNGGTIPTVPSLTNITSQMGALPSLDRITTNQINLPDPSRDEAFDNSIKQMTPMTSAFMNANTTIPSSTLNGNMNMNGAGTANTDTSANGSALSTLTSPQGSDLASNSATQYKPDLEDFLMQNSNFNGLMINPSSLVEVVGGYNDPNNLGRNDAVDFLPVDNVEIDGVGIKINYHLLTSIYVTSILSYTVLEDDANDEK

| Sequence | PBM E-score |
| --- | --- |
| ACCCCGCA | 0.189 |
| CCTGTTGA | -0.219 |
| AGAGTACA | -0.15 |
| AGGCAAAT | 0.0779 |
| AAAAACAG | -0.179 |
| ATGCATGC | -0.138 |
| TCGACCCA | -0.221 |
| AACGGAAC | 0.326 |
| AGCAATAA | -0.171 |
| GACTTGCA | -0.00655 |
| AGATCGCT | 0.0138 |
| CTCGCTAA | 0.0842 |
| ATTCAAAT | -0.0286 |
| AGTGCTGG | -0.185 |
| GCCAGACA | -0.0406 |
| GGTGTCAC | 0.0348 |
| ATACCGGG | 0.416 |
| CTACTGAC | -0.164 |
| ACAAACTG | -0.159 |
| AGGCGAGG | -0.0675 |
| CGGGAAGA | 0.282 |
| ATGTTATC | 0.0167 |

| Sequence | PBM E-score |
| --- | --- |
| ATTCTCTG | -0.185 |
| GAGCTATA | -0.179 |
| AGTTATCA | -0.0683 |
| CGCCTCCG | 0.26 |
| AGAACTAT | -0.062 |
| ACCCGAGC | 0.366 |
| TGTATCAA | -0.114 |
| CAGCAATG | -0.362 |
| AGACGGTG | -0.0646 |
| CAAGACAG | -0.115 |
| ACGAGTTC | -0.155 |
| CTACCTTC | -0.121 |
| ACACAGAT | -0.213 |
| CCCAGCGA | -0.136 |
| GGCCAACA | 0.139 |
| GCCGCCGC | 0.0563 |
| ATGCCGAC | 0.292 |
| ATGGGGAC | 0.0558 |
| ACCTCTCA | 0.00256 |
| CTACTAAC | -0.214 |
| AACGCCAC | -0.0199 |
| CATGATTA | -0.018 |

| Sequence | PBM E-score |
| --- | --- |
| CAAAGACG | 0.0782 |
| ACTACCCG | 0.187 |
| CTCATCGA | -0.0785 |
| AAAGCAGC | -0.0887 |
| GAACGCGC | 0.216 |
| GCGACGAC | -0.0585 |
| AGAGTGGA | -0.26 |
| CCATAGAG | -0.135 |
| GCCGTTCA | 0.0678 |
| GAGACCTA | -0.0894 |
| ACCACAAT | -0.00337 |
| AATTCATG | -0.0646 |
| CCACAAGG | -0.36 |
| GCGGATCC | 0.23 |
| CCACTAGC | -0.221 |
| CAATGCCC | 0.114 |
| CACCGATC | 0.22 |
| AGGTGAAA | -0.0443 |
| ACTCACAA | -0.108 |
| AGATCTAA | -0.137 |
| AGAGTGCG | -0.0864 |
| GCCCGTAA | 0.26 |

| Sequence | PBM E-score |
| --- | --- |
| CAGAGAAG | -0.111 |
| GGAATAGA | 0.0173 |
| GAAGTTGA | 0.00907 |
| AAGGGTAT | 0.0113 |
| CGACCGAA | 0.378 |
| ATGAACAG | -0.176 |
| CAGGCGTC | -0.104 |
| ACTGACAG | -0.0855 |
| AGGCTGAC | -0.308 |
| CCATAATC | -0.0843 |
| ATGCCGTG | -0.155 |
| AAGCTAGC | -0.0783 |
| CAATCGAC | -0.139 |
| ACGAGAGT | -0.156 |
| GTTATTTA | 0.0775 |
| AAAGCTGA | -0.106 |
| AGCTTAGC | -0.126 |
| AGGTTTCC | -0.0729 |
| AGAGGAAC | -0.241 |
| CTCCTCCA | -0.216 |
| ATGAATAG | -0.0153 |
| AGCGTTAG | -0.0665 |

| Sequence | PBM E-score |
| --- | --- |
| GTGAAAAA | 0.0524 |
| CCCTTAGG | -0.297 |
| CGGCCTGA | 0.183 |
| AAGCGGCC | 0.116 |
| ATTTAGAA | -0.0389 |
| CCGTACCG | 0.242 |
| CTGGTCAA | -0.0379 |
| CTAGACCA | -0.239 |
| ACGGAAGA | 0.155 |
| ATATTATA | -0.0547 |
| ATACACCG | 0.247 |
| CACTCCTC | -0.127 |
| CTACGACC | -0.0673 |
| AGCTCCGG | 0.43 |
| AGGAGCTC | -0.15 |
| AACCATTA | 0.0172 |
| CCGGTCTA | 0.211 |
| GAGGATGA | -0.179 |
| AGACCATC | -0.179 |
| CAGGTCTA | -0.217 |
| CACGAGCG | -0.255 |
